Like-named read-outs stand apart in the source and are kept apart here. Results are given in words; binding and its absence hold for the method and conditions named. Binding seen in cells or lysates may run through a third protein. Some binding calls cover weakened binding; strength is not graded here. For some assays here: Sequences can lack the tags named with a protein.
B1: FL-PP5 (FLAG-tagged PP5, WT) (enzyme, UniProt P53041 1-499)
chain: MAMAEGERTECAEPPRDEPPADGALKRAEELKTQANDYFKAKDYENAIKFYSQAIELNPSNAIYYGNRSLAYLRTECYGYALGDATRAIELDKKYIKGYYRRAASNMALGKFRAALRDYETVVKVKPHDKDAKMKYQECNKIVKQKAFERAIAGDEHKRSVVDSLDIESMTIEDEYSGPKLEDGKVTISFMKELMQWYKDQKKLHRKCAYQILVQVKEVLSKLSTLVETTLKETEKITVCGDTHGQFYDLLNIFELNGLPSETNPYIFNGDFVDRGSFSVEVILTLFGFKLLYPDHFHLLRGNHETDNMNQIYGFEGEVKAKYTAQMYELFSEVFEWLPLAQCINGKVLIMHGGLFSEDGVTLDDIRKIERNRQPPDSGPMCDLLWSDPQPQNGRSISKRGVSCQFGPDVTKAFLEENNLDYIIRSHEVKAEGYEVAHGGRCVTVFSAPNYCDQMGNKASYIHLQGSDLRPQFHQFTAVPHPNVKPMAYANTLLQLGMM
B2: CDC37 (protein, UniProt Q16543 1-378)
chain: MVDYSVWDHIEVSDDEDETHPNIDTASLFRWRHQARVERMEQFQKEKEELDRGCRECKRKVAECQRKLKELEVAEGGKAELERLQAEAQQLRKEERSWEQKLEEMRKKEKSMPWNVDTLSKDGFSKSMVNTKPEKTEEDSEEVREQKHKTFVEKYEKQIKHFGMLRRWDDSQKYLSDNVHLVCEETANYLVIWCIDLEVEEKCALMEQVAHQTIVMQFILELAKSLKVDPRACFRQFFTKIKTADRQYMEGFNDELEAFKERVRGRAKLRIEKAMKEYEEEERKKRLGPGGLDPVEVYESLPEELQKCFDVKDVQMLQDAISKMDPTDAKYHMQRCIDSGLWVPNSKASEAKEGEEAGPGDPLLEAVPKTGDEKDVSV
B3: PP2A regulatory subunit B55γ, FLAG-tagged (B55-FL) (protein, UniProt Q9Y2T4 1-447)
chain: MGEDTDTRKINHSFLRDHSYVTEADIISTVEFNHTGELLATGDKGGRVVIFQREPESKNAPHSQGEYDVYSTFQSHEPEFDYLKSLEIEEKINKIKWLPQQNAAHSLLSTNDKTIKLWKITERDKRPEGYNLKDEEGKLKDLSTVTSLQVPVLKPMDLMVEVSPRRIFANGHTYHINSISVNSDCETYMSADDLRINLWHLAITDRSFNIVDIKPANMEDLTEVITASEFHPHHCNLFVYSSSKGSLRLCDMRAAALCDKHSKLFEEPEDPSNRSFFSEIISSVSDVKFSHSGRYMLTRDYLTVKVWDLNMEARPIETYQVHDYLRSKLCSLYENDCIFDKFECAWNGSDSVIMTGAYNNFFRMFDRNTKRDVTLEASRESSKPRAVLKPRRVCVGGKRRRDDISVDSLDFTKKILHTAWHPAENIIAIAATNNLYIFQDKVNSDMH
B4: PP2A regulatory subunit B55δ, FLAG-tagged (B55-FL) (protein, UniProt Q66LE6 1-453)
chain: MAGAGGGGCPAGGNDFQWCFSQVKGAIDEDVAEADIISTVEFNYSGDLLATGDKGGRVVIFQREQENKSRPHSRGEYNVYSTFQSHEPEFDYLKSLEIEEKINKIRWLPQQNAAHFLLSTNDKTIKLWKISERDKRAEGYNLKDEDGRLRDPFRITALRVPILKPMDLMVEASPRRIFANAHTYHINSISVNSDHETYLSADDLRINLWHLEITDRSFNIVDIKPANMEELTEVITAAEFHPHQCNVFVYSSSKGTIRLCDMRSSALCDRHSKFFEEPEDPSSRSFFSEIISSISDVKFSHSGRYMMTRDYLSVKVWDLNMESRPVETHQVHEYLRSKLCSLYENDCIFDKFECCWNGSDSAIMTGSYNNFFRMFDRDTRRDVTLEASRESSKPRASLKPRKVCTGGKRRKDEISVDSLDFNKKILHTAWHPVDNVIAVAATNNLYIFQDKIN
B5: FL-PP5-IA (FLAG-tagged catalytically inactive PP5, N303A/H304A) (enzyme, UniProt P53041 1-499)
chain: MAMAEGERTECAEPPRDEPPADGALKRAEELKTQANDYFKAKDYENAIKFYSQAIELNPSNAIYYGNRSLAYLRTECYGYALGDATRAIELDKKYIKGYYRRAASNMALGKFRAALRDYETVVKVKPHDKDAKMKYQECNKIVKQKAFERAIAGDEHKRSVVDSLDIESMTIEDEYSGPKLEDGKVTISFMKELMQWYKDQKKLHRKCAYQILVQVKEVLSKLSTLVETTLKETEKITVCGDTHGQFYDLLNIFELNGLPSETNPYIFNGDFVDRGSFSVEVILTLFGFKLLYPDHFHLLRGAAETDNMNQIYGFEGEVKAKYTAQMYELFSEVFEWLPLAQCINGKVLIMHGGLFSEDGVTLDDIRKIERNRQPPDSGPMCDLLWSDPQPQNGRSISKRGVSCQFGPDVTKAFLEENNLDYIIRSHEVKAEGYEVAHGGRCVTVFSAPNYCDQMGNKASYIHLQGSDLRPQFHQFTAVPHPNVKPMAYANTLLQLGMM

The chains behind the UniProt entries cited, without tags or fusion partners. Where a name states a change or a piece, a line headed by the entry shows the natural chain unless it says otherwise.
UniProt Q15173: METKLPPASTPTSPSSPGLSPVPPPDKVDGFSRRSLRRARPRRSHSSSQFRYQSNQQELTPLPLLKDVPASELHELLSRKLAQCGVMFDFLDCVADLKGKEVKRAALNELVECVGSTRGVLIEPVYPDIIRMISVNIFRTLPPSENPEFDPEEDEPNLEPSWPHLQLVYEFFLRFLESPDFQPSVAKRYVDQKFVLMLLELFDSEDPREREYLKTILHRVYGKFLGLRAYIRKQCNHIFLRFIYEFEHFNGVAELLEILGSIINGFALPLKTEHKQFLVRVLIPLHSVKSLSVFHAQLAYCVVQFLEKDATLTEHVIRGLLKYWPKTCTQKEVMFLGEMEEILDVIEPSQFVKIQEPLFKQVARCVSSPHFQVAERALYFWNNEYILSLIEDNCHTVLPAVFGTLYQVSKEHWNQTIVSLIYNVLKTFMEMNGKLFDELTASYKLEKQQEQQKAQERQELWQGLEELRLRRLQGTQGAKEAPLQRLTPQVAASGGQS
UniProt Q9WVC6: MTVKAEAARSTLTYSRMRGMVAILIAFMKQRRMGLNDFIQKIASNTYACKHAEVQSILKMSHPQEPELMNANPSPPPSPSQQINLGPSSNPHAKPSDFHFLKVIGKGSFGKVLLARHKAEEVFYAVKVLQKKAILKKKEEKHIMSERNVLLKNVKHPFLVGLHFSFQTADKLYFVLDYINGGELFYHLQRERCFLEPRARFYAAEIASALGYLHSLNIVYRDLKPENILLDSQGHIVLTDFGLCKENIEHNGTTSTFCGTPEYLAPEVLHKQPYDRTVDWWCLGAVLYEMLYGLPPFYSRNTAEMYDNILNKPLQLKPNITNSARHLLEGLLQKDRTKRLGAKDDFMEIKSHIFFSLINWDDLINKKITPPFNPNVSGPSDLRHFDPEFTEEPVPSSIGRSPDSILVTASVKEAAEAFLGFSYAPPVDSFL
UniProt P31749: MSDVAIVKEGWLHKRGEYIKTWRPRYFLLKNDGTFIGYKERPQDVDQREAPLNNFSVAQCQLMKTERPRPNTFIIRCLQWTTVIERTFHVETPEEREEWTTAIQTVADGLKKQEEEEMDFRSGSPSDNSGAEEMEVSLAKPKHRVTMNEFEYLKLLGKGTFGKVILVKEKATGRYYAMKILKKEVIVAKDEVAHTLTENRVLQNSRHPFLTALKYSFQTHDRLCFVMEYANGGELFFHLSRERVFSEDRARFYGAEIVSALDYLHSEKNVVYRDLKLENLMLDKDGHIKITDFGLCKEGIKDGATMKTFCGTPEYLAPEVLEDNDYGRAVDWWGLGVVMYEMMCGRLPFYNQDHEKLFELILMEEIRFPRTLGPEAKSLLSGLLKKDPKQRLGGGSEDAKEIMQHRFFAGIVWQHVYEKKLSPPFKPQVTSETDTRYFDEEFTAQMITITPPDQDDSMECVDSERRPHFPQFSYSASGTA
UniProt P23443: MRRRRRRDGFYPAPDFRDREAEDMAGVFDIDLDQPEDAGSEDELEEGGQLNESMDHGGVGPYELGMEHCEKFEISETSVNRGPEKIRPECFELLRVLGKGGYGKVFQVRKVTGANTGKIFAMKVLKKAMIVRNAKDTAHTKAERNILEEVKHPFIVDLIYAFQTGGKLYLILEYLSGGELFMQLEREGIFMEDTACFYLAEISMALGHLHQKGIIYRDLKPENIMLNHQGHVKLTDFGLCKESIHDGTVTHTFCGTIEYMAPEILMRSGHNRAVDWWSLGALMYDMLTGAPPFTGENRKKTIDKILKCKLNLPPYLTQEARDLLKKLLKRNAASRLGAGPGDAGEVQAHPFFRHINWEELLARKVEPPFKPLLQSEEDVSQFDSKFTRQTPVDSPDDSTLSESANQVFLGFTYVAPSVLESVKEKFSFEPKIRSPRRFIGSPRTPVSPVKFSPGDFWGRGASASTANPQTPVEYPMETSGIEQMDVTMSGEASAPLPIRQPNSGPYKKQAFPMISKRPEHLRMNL

Tests used:
[1] = target: T1, PP2A regulatory subunit B55γ, FLAG-tagged (B55-FL) (UniProt Q9Y2T4); assay: co-IP; FLAG-tagged bait precipitated with FLAG magnetic beads from lysates of transfected 293T cells (TENT 1%); western blot
T1 sequence: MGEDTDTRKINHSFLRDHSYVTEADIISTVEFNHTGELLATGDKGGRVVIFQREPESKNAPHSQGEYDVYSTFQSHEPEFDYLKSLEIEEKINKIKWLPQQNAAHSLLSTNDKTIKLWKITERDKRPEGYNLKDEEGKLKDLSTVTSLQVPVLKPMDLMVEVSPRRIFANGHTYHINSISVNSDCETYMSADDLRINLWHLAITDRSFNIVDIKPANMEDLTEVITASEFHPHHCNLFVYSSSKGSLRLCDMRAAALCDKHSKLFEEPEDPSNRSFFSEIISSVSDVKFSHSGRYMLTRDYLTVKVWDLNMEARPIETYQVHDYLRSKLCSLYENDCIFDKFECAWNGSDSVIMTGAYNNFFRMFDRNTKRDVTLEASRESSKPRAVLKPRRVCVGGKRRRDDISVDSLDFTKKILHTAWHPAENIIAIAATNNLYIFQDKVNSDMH

[2] = target: T2, PP2A regulatory subunit B55δ, FLAG-tagged (B55-FL) (UniProt Q66LE6); assay: as above
T2 sequence: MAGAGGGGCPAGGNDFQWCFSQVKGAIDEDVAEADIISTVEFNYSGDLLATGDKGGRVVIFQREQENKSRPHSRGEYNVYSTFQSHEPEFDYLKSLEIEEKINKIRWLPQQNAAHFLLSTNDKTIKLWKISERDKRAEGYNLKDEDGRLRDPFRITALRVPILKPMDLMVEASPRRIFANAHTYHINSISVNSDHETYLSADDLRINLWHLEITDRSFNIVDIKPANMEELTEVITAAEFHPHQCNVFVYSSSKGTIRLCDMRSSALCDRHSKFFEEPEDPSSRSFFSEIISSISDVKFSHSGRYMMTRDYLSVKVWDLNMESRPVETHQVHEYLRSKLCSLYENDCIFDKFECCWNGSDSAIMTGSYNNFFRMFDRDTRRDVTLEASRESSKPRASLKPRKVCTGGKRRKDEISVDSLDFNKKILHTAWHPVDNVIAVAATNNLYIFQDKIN

[3] = target: PP2A regulatory subunit B56β, FLAG-tagged (B56-FL) (UniProt Q15173); assay: as above
[4] = target: T3, Strep-PP5 WT (active) (UniProt P53041); assay: co-IP; Strep-PP5 captured on Strep-Tactin XT Superflow from lysates of transfected 293T cells, eluted with buffer BXT (50 mM biotin); western blot
T3 sequence: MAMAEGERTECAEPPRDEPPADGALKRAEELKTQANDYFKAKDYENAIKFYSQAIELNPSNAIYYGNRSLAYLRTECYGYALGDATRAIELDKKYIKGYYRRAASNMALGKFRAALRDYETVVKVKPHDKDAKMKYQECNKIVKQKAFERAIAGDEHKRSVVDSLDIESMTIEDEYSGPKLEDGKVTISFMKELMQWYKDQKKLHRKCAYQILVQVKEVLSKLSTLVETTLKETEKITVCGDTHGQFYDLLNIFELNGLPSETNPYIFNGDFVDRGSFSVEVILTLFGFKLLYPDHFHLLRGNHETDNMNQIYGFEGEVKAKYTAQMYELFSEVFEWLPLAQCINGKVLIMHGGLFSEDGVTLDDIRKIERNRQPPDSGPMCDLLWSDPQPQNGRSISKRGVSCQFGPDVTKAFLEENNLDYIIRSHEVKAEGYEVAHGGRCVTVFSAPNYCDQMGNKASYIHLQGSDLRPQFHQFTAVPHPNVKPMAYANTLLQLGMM

[5] = target: T4, Strep-PP5 inactive (PP5-IA, N303A/H304A) (UniProt P53041); assay: as above
T4 sequence: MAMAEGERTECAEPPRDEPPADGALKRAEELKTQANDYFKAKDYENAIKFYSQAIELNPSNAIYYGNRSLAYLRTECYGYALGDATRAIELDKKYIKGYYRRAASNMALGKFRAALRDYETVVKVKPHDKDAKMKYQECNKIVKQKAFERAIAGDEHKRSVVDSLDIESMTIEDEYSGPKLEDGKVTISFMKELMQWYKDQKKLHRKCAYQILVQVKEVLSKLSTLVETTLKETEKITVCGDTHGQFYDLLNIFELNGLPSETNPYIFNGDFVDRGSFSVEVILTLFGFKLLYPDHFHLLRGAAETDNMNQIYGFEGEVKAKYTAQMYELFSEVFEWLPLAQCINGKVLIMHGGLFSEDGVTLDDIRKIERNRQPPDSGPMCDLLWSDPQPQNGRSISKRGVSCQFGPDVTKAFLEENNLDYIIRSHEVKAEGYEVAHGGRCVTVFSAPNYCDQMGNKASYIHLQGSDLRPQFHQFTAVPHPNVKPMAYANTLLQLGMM

[6] = target: serum- and glucocorticoid-induced kinase 1, HA-tagged (SGK1-HA) (UniProt Q9WVC6); assay: co-IP; HA-tagged bait precipitated with HA magnetic beads from lysates of transfected 293T cells (TENT 1%: 50 mM Tris, 150 mM NaCl, 5 mM EDTA, 1% Triton X-100, pH 7.4); western blot
[7] = target: serum- and glucocorticoid-induced kinase 1, HA-tagged (SGK1-HA) (UniProt Q9WVC6); assay: as above; remark: listed apart in the source
[8] = target: T3, Strep-PP5 WT (active); assay: co-IP; Strep-PP5 captured on Strep-Tactin XT Superflow from lysates of transfected 293T cells, eluted with buffer BXT (50 mM biotin); western blot; remark: listed apart in the source
[9] = target: T4, Strep-PP5 inactive (PP5-IA, N303A/H304A); assay: as above; remark: listed apart in the source

| Molecule | binding [4] | binding [7] | also measured |
| --- | --- | --- | --- |
| serum- and glucocorticoid-induced kinase 1, HA-tagged (SGK1-HA) (from UniProt Q9WVC6 1-431) (enzyme) | binds |  | binding [1]: binds; binding [2]: binds; binding [3]: binds; binding [5]: binds |
| AKT1 (from UniProt P31749 1-480) (enzyme) | no binding |  |  |
| Δ60SGK1-HA (from UniProt Q9WVC6 61-431) (enzyme) | binds |  | binding [5]: binds |
| PP2A regulatory subunit B56β, FLAG-tagged (B56-FL) (from UniProt Q15173 1-497) |  |  | binding [6]: binds |
| p70S6K (from UniProt P23443 1-525) (enzyme) | no binding |  |  |
| B1 |  | binds |  |
| B2 |  | binds | binding [8]: binds; binding [9]: binds |
| B3 |  | binds |  |
| B4 |  | binds |  |
| B5 |  | binds |  |

From paper PMC10372406
